Assay results published in PubChem BioAssay AID1508623 (National Center for Advancing Translational Sciences (NCATS), 2021).
The whole screen tested about 48,000 compounds, of which about 450 (0.94%) were called active. Another 19% or so got no clear call; they are omitted. Calls follow the shape of the dose curve; as a rule, active = well fitted inhibition curve with a large enough effect; inconclusive = small, poorly fitted or top-dose-only effect; inactive = no such curve, though single readings can be large or run the other way. This is one part of the list.

Test: Primary qHTS for Identification of Small Molecule Inhibitors of Huntingtin Promoter Activity; also: nearly all actives have a fitted effect of over 50% in size
Conditions: HEK293 HTT promoter firefly luciferase reporter (activity 0% = vehicle and -100% = no light), 24 h; series mostly up to 57.5 µM; activity change, negative = inhibition: at the top concentration
Procedure, shortened: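 HEK293 luciferase promoter-reporter cells (2,500/well) plated 24 h, then compounds added at up to 57.5 uM final for 24 h at 37 °C. Firefly luminescence by Dual-Glo, normalized to vehicle (0%) and zero RLU (-100%).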
Potency is read from the fitted curve at half-maximal effect.

Activity change, negative = inhibition, inactive:
O=C(c1cc2c(=O)oc3ccccc3c2s1)N1CCN(c2cccc(Cl)c2)CC1 -11.4%
COc1cc(/C=C/C(N)=O)cc(OC)c1OC 21.6%
CCOC(=O)N1CCN(C(=O)CN(c2cccc(Cl)c2C)S(=O)(=O)c2ccc(C)cc2)CC1 -32.8%
O=C(Nc1ccccc1)c1cccc2c(=O)c3c([nH]c12)CCCC3 -11.5%
COc1ccccc1-c1nc(-c2ccc(Br)o2)no1 24.1%
Cc1cccc(-n2c(SCC(N)=O)nc3c(oc4ccccc43)c2=O)c1 -17.8%
COCCn1c(SCC(=O)c2cc(C)ccc2C)nc2cc(C(=O)NC3CCCC3)ccc2c1=O -28.4%
Cc1cc(C)cc(NC(=O)c2cc(S(=O)(=O)N3CCCCCC3)cn2C)c1 -9.14%
Nc1ccn([C@H]2CC[C@@H](CO)O2)c(=O)n1
Cc1nn(CC(=O)NC2CC2)c(=O)c2cc3ccccc3n12 -7.64%
CCN(CC)CCN(C(=O)c1ccco1)c1nc2ccc(Cl)cc2s1 1.71%
Cc1ccc(-n2nc3c(N4CCC(C(=O)NC(C)C)CC4)nnc(C)c3c2C)cc1 -5.92%
Cc1ccc(NC(=O)Cn2c(-c3ccc4c(c3)OCO4)cn(-c3ccccc3)c2=O)cc1C 15.6%
Cc1c(Cl)cccc1-n1ncc(C(=O)Nc2ccc3c(c2)OCCO3)c1C1CCN(C(=O)OC(C)(C)C)CC1 -24.9%
CCOc1ccc(-c2nc(SC(C(C)=O)C(=O)N(C)C)c3c(=O)n(C)c(=O)n(C)c3n2)cc1 (stereo not drawn) -3.19%
CCc1ccc(NC(=O)c2ccc3c(c2)nnn3CC)cc1 0%
Cc1ccccc1OCC(=O)OCc1cc(=O)n2ccsc2n1 -12.9%
Cc1ccc2cc3cc(C(=O)Nc4ccc(F)cc4Cl)oc3nc2c1 -6.3%
CCc1ccc(OC(C)C(=O)Nc2c(C(=O)c3ccccc3)oc3ccccc23)cc1 (stereo not drawn) -18.3%
COc1ccc(Cl)cc1NC(=O)c1cc2c(s1)-c1ccccc1OC2 4.92%
COCCNC(=O)CCc1nc2cccnc2n1Cc1ccc(OC)cc1 -7.12%
Oc1c(Br)cc(Br)cc1-c1nc2ccccc2s1 -6.03%
CS(=O)(=O)N(CC(=O)NCCSc1ccccc1)c1cc(C(F)(F)F)ccc1Cl -22%
COc1ccc(OC)c(NC(=O)CSc2cn(CC(=O)N3CCOCC3)c3ccccc23)c1 -4%
COc1cccc(C2C(C(=O)Nc3ccccc3)=C(C)Nc3nc(-c4ccccc4)nn32)c1 (stereo not drawn) 1.24%
CCCN(CCC)C(=O)C1CCCN(S(=O)(=O)c2ccc3c(c2)oc(=O)n3C)C1 (stereo not drawn) -14.4%
O=C(c1ccccc1)c1ccccc1NC(=O)c1ccccc1C(=O)O -15.7%
COc1ccc(-c2noc(-c3ccc(NC4CCCC4)c([N+](=O)[O-])c3)n2)cc1 -11.6%
CC(=O)c1ccc(N2CCN(C(=O)c3cc4cc5cc(C)ccc5nc4s3)CC2)cc1 8.11%
Cc1ccc(C)c(NC(=O)C2CCCN(S(=O)(=O)c3ccc4[nH]c(=O)ccc4c3)C2)c1 (stereo not drawn) -14.8%
Cc1ccc(C(=O)c2oc3ccccc3c2NC(=O)c2cc(-c3ccccc3)on2)cc1F -1.06%
Cc1noc(Cn2c(=O)c3cc4c(cc3n(CC(=O)Nc3cccc(Cl)c3)c2=O)OCO4)n1 -20.6%
COc1ccc(NC(=O)[C@@H](c2ccccc2)N2Cc3ccccc3C2=O)cc1OC -17.1%
CC(=O)Nc1nonc1-c1nnc(SCC(=O)Nc2ccc(C)cc2C)n1C -10.3%
CN(C)CCOC(C)(c1ccccc1)c1ccccn1 (stereo not drawn) 14%
CC1CCc2c(sc(NC(=O)COc3ccccc3)c2C(=O)Nc2ccccc2Cl)C1 (stereo not drawn) -8.54% [at 11.5 µM]
Cc1ccc(CSCC(=O)N2CCN(c3cc(Cl)ccc3C)CC2)cc1 -14.6%
C=CCNC(N)=S 1.34%
Cc1ccc(-n2nc(C(=O)NCCN(C)C)c(=O)n(C)c2=O)cc1 -3.26%
COc1ccc(C2C(C(N)=O)=C(C)Nc3nc(-c4ccccc4Cl)nn32)cc1 (stereo not drawn) -0.605%
Cc1[nH]c2ccccc2c1C(=O)C(=O)NC1CC(=O)N(c2cccc(F)c2)C1 (stereo not drawn) 4.01%
COc1cccc(-c2cc(=O)c3ccccc3o2)c1N 34%
Cn1c(=O)[nH]c(=O)c2c1nc1n(CCO)c(-c3ccccc3)cn21 6.53%
CCCCOc1ccc(-c2cc3c(=O)n(CC(=O)Nc4ccc(Cl)cc4Cl)ccn3n2)cc1 -8.93%
O=C(CSc1nc2c(cnn2-c2ccc(F)cc2)c(=O)[nH]1)Nc1ccc(Br)cc1 -14.3%
Cc1ccc(-c2nn(CC(=O)NC3CCCCC3)c3c2cnc2ccc(F)cc23)cc1C -10.8%
CCOc1cccc2cc(-c3nnc(Nc4ccc(F)c(Cl)c4)s3)c(=O)oc12 27.1%
CC(=O)c1ccc2c(c1)N(CCCN(C)C)c1ccccc1S2 -17.2%
COc1cccc(CNC(=O)c2cc(=O)[nH]c3ccc(S(=O)(=O)N4CCCCC4)cc23)c1 -17.4%
CC(C)C(=O)OC1=CN(Cc2ccccc2)S(=O)(=O)c2ccccc21 -11.2%
Cc1ccc(Cl)cc1NC(=O)CN(C)S(=O)(=O)c1ccc2c(c1)n(C)c(=O)c(=O)n2C -5.04%
COc1ccc(CCNC(=O)c2cc(-c3ccccc3)nc3ccccc23)cc1OC -16.9%
CCn1cc(C(=O)OCC(=O)Nc2cc(C)cc(C)c2)c(=O)c2ccc(C)nc21 -13.8%
COC(=O)c1scc(-c2ccc(C)cc2)c1S(=O)(=O)Nc1cccc(C(F)(F)F)c1 23.7%
COC(=O)c1sc2cccc(F)c2c1S(=O)(=O)Nc1cc(OC)cc(OC)c1 -21.1%
O=C(CSc1nc2ccccc2c(=O)n1CCC(=O)NC1CCCCC1)Nc1ccccc1Cl -5.43%
Cc1nn(CCCC(=O)NCc2ccccc2)c(=O)c2nn(-c3ccccc3)c(C)c12 -18.5%
C[C@@H](O)[C@H]1C(=O)N2C(C(=O)O)=C(S[C@@H]3CN[C@H](CNS(N)(=O)=O)C3)[C@H](C)[C@H]12 10.2%
CCC(=O)N1CCc2cc(S(=O)(=O)NCCC(=O)Nc3ccc(OC)c(Cl)c3)ccc21 -10.1%
CCc1nnc2c(NCc3ccccc3OC)nc3ccccc3n12 1.58%
CC(C)c1nnc(N2C(=O)c3oc4ccccc4c(=O)c3C2c2cccc(O)c2)s1 (stereo not drawn) -6.22% [at 11.5 µM]
CCOc1ccc(CC(=O)Nc2nnc3n2CCS3)cc1 2.77%
COC(=O)CNC(=O)C(Cc1ccccc1)NS(=O)(=O)c1ccc2c(c1)c(=O)n(C)c(=O)n2C (stereo not drawn) -7.94%
CCN(C(=O)C1CCN(S(=O)(=O)c2ccc3c(c2)CCCN3C(=O)C2CCC2)CC1)c1cccc(C)c1 -8.77%
Cc1ccc(NC(=O)Cn2c(=O)n(CCCCCC(=O)NCc3ccc(F)cc3)c(=O)c3sccc32)c(C)c1 -28.2%
Cc1c(Cl)cccc1NC(=O)c1cnc2sc(N3CCCC3)nn2c1=O 3.72%
COCCN1Cc2cccc(C(=O)Nc3ccc(C)cc3C)c2C1=O -0.462%
Cc1cc2c(cc1S(=O)(=O)N1CCC(C)CC1)OCC(=O)N2 -32.4%
O=C(COc1ccccc1)Nc1ccc(S(=O)(=O)N(Cc2ccccc2)c2ccccc2)cc1 -7.44%
Oc1c(I)cc(Cl)c2cccnc12 -12.1%
Cc1ccc(-c2nnc(SCC(=O)N3CCc4ccccc43)o2)cc1 -5.41%
CCCC12CN3CC(CCC)(CN(C1)C3c1c[nH]c3ccccc13)C2=O (stereo not drawn) -13.1%
O=S(=O)(c1ccc2ccccc2c1)n1nc(-c2ccco2)nc1NCc1cccc(Cl)c1 -25.1%
Cc1ccc(CNC(=O)c2ccc3c(c2)N(Cc2ccccc2F)C(=O)c2ccccc2S3(=O)=O)cc1 -15.9%
COc1ccc(S(=O)(=O)c2cn(C)c3cc(N4CCCC4)c(F)cc3c2=O)cc1 -4.74%
COc1cccc(CNC(=O)c2cnc(N3CCCC3)nc2C)c1 -10%
CN1CCN(C(CNC(=O)C(=O)Nc2ccc(F)cc2F)c2ccc3c(c2)OCO3)CC1 (stereo not drawn) 0.301%
CCOc1ccc(CCNC(=O)Cn2nnc(-c3ccc(OC)c(OC)c3)n2)cc1OCC -18%
CC(C)Oc1ccc(CNS(=O)(=O)c2cnc(N)nc2)cc1 0.433%
CC(C)Cn1cnc2c1c(=O)n(C)c(=O)n2C 5.01%
COc1cc(NC(=O)c2nnn(CC(=O)Nc3ccccc3)c2N)cc(OC)c1 -14%
Cc1ccc2nc(-c3ccc(NC(=O)COc4c(C)ccc(C)c4C)cc3)sc2c1 30.9%
CC(C)(C#N)c1cc(Cn2cncn2)cc(C(C)(C)C#N)c1
O=C(NC1CCCCC1)c1ccc2c(c1)N(Cc1ccccc1)C(=O)c1ccccc1S2 -2.08%
O=C(CN1C(=O)C2(SCC(=O)N2c2ccccc2)c2ccccc21)NCc1ccccc1Cl (stereo not drawn) -15.6%
CCCc1nn2c(=O)cc(COC(=O)c3ccc(NC(=O)C(C)Oc4ccccc4)cc3)nc2s1 (stereo not drawn) -15.2%
CCCCNc1nc(Oc2ccc(=O)n(C)n2)nc(N(C)C)n1 7.64%
COc1ccc(C(=O)c2cn(Cc3ccc(C)cc3)c3cc4c(cc3c2=O)OCO4)cc1 -28.1%
Cc1c(Cl)cccc1NC(=O)CCn1c(=O)c2cccn2c2ccccc21 -7.32%
Cc1ccc2c(CC(=O)Nc3ccccc3C(F)(F)F)coc2c1C -0.736%
CC(CNC(=O)C1CCN(Cc2cc3ccccc3n2Cc2ccccc2)CC1)c1ccccc1 (stereo not drawn) -24.9%
COc1ccc(Br)cc1CNC(=O)c1ccc2c(c1)nc1n2CCCCC1 -15.6%
Cc1cccc(CN2C(=O)c3ccccc3S(=O)(=O)c3ccc(C(=O)N4CCN(c5cc(C)ccc5C)CC4)cc32)c1 -18.9%
CCc1ccc(-c2cc3c(N4CCN(c5ccccc5)CC4)nccn3n2)cc1 -2.9%
COc1cccc(C(=O)n2nc(-c3ccco3)nc2NCc2cccs2)c1 9.07%
Cc1cccc(-c2nc3nc(C)cc(N4CCN(c5ccccc5)CC4)n3n2)c1 -1.3%
COc1ccc(NC(=O)N2CCN(c3cc(-c4noc(C)n4)ccc3C)CC2)c(OC)c1 -20.4%

Potency, active:
Cn1c(SCc2ccc(F)cc2)nc2ccc(C(=O)NCc3ccc(F)cc3)cc21 25.1 µM
